Reference: PubChem BioAssay AID1963576 (National Center for Advancing Translational Sciences (NCATS), 2024)
Hit rate of the full screen: of about 46,000 compounds, about 60 (0.1%) were called active. Not shown: some 3% with an inconclusive outcome. Calls come from the whole dose curve; as a rule, active = well fitted inhibition curve with a large enough effect; inconclusive = small, poorly fitted or top-dose-only effect; inactive = no such curve, though single readings can be large or run the other way. The list shows a part of the results.

experiment: Primary qHTS assay for Inhibitors of ovarian cancer metastasis using an organotypic tumor microenvironment (TME) model.; note: nearly all actives have a fitted effect of over 65% in size;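 for activity change, negative = inhibition: plate controls were DMSO wells for no effect and tomatine positive control wells for full effect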; conditions: SKOV3ip1-GFP adhesion/invasion on 3D omental model, fluorescence; series mostly up to 45.8 µM; activity change, negative = inhibition: at the top concentration
Outline: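 Primary human omental fibroblast/mesothelial 3D culture pre-formed 48 h. SKOV3ip1-GFP cells added with compounds (0.36-46 umol/L), incubated 2 h RT/16 h 37 C, fixed; GFP cells quantified at 488/509 nm.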

Activity change, negative = inhibition, inactive:
O=S(=O)(Nc1ccc(-c2ccc(N3CCCC3)nn2)cc1)c1cc(F)ccc1F -2.3%
CC1=C(C(=O)Nc2ccc(C)cc2C)C(c2ccccc2F)n2nc(SCC(=O)c3ccc(C)cc3)nc2N1 (stereo not given) -19.8%
O=C(Cn1c(=O)c2cccn2c2cccnc21)NCc1ccccc1F 4.84%
Cc1cc(-n2c(C)nc3ccccc3c2=O)ccc1NC(=O)c1ccc([N+](=O)[O-])cc1 -0.648%
O=C(Nc1ccc(S(=O)(=O)N2CCCCCC2)cc1)c1cc(=O)c2ccccc2o1 -5.86%
COc1ccc(NCc2cc3ccc(OC)cc3n(CC(=O)Nc3cc(Cl)ccc3C)c2=O)cc1 -15%
Cc1cc(=O)n(CC(=O)N2CCN(c3ccc(F)cc3)CC2)c2c1c(C)nn2C -6.48%
Nc1c(-c2nc(-c3ccc(F)cc3)cs2)c2ccccn2c1C(=O)c1ccc2c(c1)OCO2 3.35%
CCOc1ccc(NS(=O)(=O)c2ccc3[nH]cc(C(=O)NCC4CCCO4)c(=O)c3c2)cc1 (stereo not given) -1.21%
CCOc1ccc(N2CC(C(=O)NCc3nnnn3-c3ccc(C)c(C)c3)CC2=O)cc1 (stereo not given) -9.17%
CC(=O)c1ccc(N2CCN(C(=O)CCS(=O)(=O)c3ccc4c(c3)oc(=O)n4C)CC2)cc1 -13.6%
CCc1cccc(NC(=O)CN(C)S(=O)(=O)c2cccc3cccnc23)c1 1.42%
CC(Oc1ccccc1F)C(=O)Nc1ccc(-c2nc3ccccc3s2)cc1 (stereo not given) -7.44%
CC(=O)c1cccc(NC(=O)c2cc3c(s2)-c2c(C)cccc2OC3)c1 -1.48%
CCC1CCCCN1C(=O)c1sc(-n2nc(C)c(Cc3ccccc3)c2C)nc1C (stereo not given) 13.1%
COc1cc(/C=C/c2nc(C#N)c(N3CCC(C)CC3)o2)cc(OC)c1OC 1.33%
CCc1ccc2c(c1)NC(c1ccc(OC)cc1)=NC(c1ccncc1)=N2 0.692%
CCOC(=O)c1c(S(=O)(=O)NCC(=O)NCc2ccccc2)c(C)n(C)c1C -5.9%

outcome, inactive:
COc1ccccc1NC(=O)C1CCC(CNS(=O)(=O)c2ccc3c(c2)CC(C)N3C(C)=O)CC1 (stereo not given)
COC(=O)CN1C(=O)CSc2ccc(S(=O)(=O)Nc3cccc(Cl)c3C)cc21
CC1CCc2c(sc(NC(=O)c3cc4nc(-c5ccc(Cl)cc5)cc(C(F)(F)F)n4n3)c2C#N)C1 (stereo not given)
Cc1ccc(Cl)cc1NC(=O)CN1C(=O)C(C)(C)c2cc(S(=O)(=O)N3CCCCC3)ccc21
COc1ccc(S(=O)(=O)c2cnc(SCC(=O)Nc3cc(F)ccc3C)[nH]c2=O)cc1Cl
CCOc1ccccc1NC(=O)C(C)N(c1ccccc1)S(C)(=O)=O (stereo not given)
CCOC(=O)c1ccc(OC(=O)c2cn(-c3cccc(OC)c3)c(=O)c3ccccc23)cc1
